Paper PMC9911399, “Two distinct binding modes provide the RNA-binding protein RbFox with extraordinary sequence specificity”
Where a chain is given by its changes, count along the chain named. Some of the results follow.

T1: RBFOX1 RRM RbFoxmut (Fox-RRM*) (Homo sapiens, UniProt Q9NWB1 109-208, R118D;E147R;N151S;E152T)
T1 sequence: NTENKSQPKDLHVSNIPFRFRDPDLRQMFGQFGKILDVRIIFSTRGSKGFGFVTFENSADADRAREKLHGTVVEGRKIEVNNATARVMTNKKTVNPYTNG

B1: CAGCAUA (DNA:RNA)
RNA: GGGAGACCGGAAUUCAGAUUGUCCCAGCAUAUUAAAUCCCGUCGUAGCCACCA
DNA 1: CAATCTGAATTCCGGTCTCCC
DNA 2: TGGTGGCTACGACGGGATT
B2: CUCAGAA (DNA:RNA)
RNA: B1 RNA with A26U, G27C, C28A, A29G, U30A
DNA 1: CAATCTGAATTCCGGTCTCCC
DNA 2: TGGTGGCTACGACGGGATT
B3: CGCUCGA (DNA:RNA)
RNA: B1 RNA with A26G, G27C, C28U, A29C, U30G
DNA 1: CAATCTGAATTCCGGTCTCCC
DNA 2: TGGTGGCTACGACGGGATT
B4: UCAAUUC (DNA:RNA)
RNA: B1 RNA with C25U, A26C, G27A, C28A, A29U, A31C
DNA 1: CAATCTGAATTCCGGTCTCCC
DNA 2: TGGTGGCTACGACGGGATT
B5: UCCUUCA (DNA:RNA)
RNA: B1 RNA with C25U, A26C, G27C, C28U, A29U, U30C
DNA 1: CAATCTGAATTCCGGTCTCCC
DNA 2: TGGTGGCTACGACGGGATT
B6: CUAAUAG (DNA:RNA)
RNA: B1 RNA with A26U, G27A, C28A, A29U, U30A, A31G
DNA 1: CAATCTGAATTCCGGTCTCCC
DNA 2: TGGTGGCTACGACGGGATT
B7: GCGAUUU (DNA:RNA)
RNA: B1 RNA with C25G, A26C, C28A, A29U, A31U
DNA 1: CAATCTGAATTCCGGTCTCCC
DNA 2: TGGTGGCTACGACGGGATT
B8: ACUUGAA (DNA:RNA)
RNA: B1 RNA with C25A, A26C, G27U, C28U, A29G, U30A
DNA 1: CAATCTGAATTCCGGTCTCCC
DNA 2: TGGTGGCTACGACGGGATT
B9: AACGUAC (DNA:RNA)
RNA: B1 RNA with C25A, G27C, C28G, A29U, U30A, A31C
DNA 1: CAATCTGAATTCCGGTCTCCC
DNA 2: TGGTGGCTACGACGGGATT

Each binder was assayed against T1, RBFOX1 RRM RbFoxmut (Fox-RRM*) (assay: EMSA; HiTS-Eq, 1 nM pool, 10 min; buffer printed only for the single-RNA assays: 10 mM Tris pH 7.5, 150 mM NaCl, 3.4 mM EDTA, 0.001% NP-40, 30 C). Conditions: tags: His6 N-terminal (pET28a); label: 5' 32P.
Outline: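 Purified wild-type or mutant RbFox RRM at increasing concentrations was equilibrated with 1 nM of 5′-radiolabelled RNA carrying 7 randomized nucleotides for 10 min in 50 µL. Unbound RNA was separated by 8% native PAGE and sequenced. Relative association constants came from read-count changes of each RNA species compared with the control reaction, normalised to the cognate motif.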
B1 was tested, and the binding signal was 0.137 KA relative to UGCAUGU. With B2 the binding signal was 0.123 KA relative to UGCAUGU. For B3, the binding signal was 0.131 KA relative to UGCAUGU. For B4, the binding signal was 0.0738 KA relative to UGCAUGU. With B5 the binding signal was 0.0982 KA relative to UGCAUGU. In the case of B6, the binding signal is reported as 0.0844 KA relative to UGCAUGU. In the case of B7, the binding signal is reported as 0.0734 KA relative to UGCAUGU. For B8, the binding signal was 0.0965 KA relative to UGCAUGU. For B9, the binding signal was 0.115 KA relative to UGCAUGU.
